Where “and” joins values, the source holds several entries; their conditions need not be identical. Equal values may be shown once. The shares of active, inactive and inconclusive entries below differ from those in the screen. Potencies of inconclusive entries are left out as doubtful fits. Calls of active or inactive are those of the source. Calls follow the shape of the dose curve; as a rule, active = well fitted cell-killing curve with a large enough effect; inconclusive = small, poorly fitted or top-dose-only effect; inactive = flat fitted curve, though single readings scatter.
Assay: qHTS of pediatric cancer cell lines to identify multiple opportunities for drug repurposing: Primary screen for BT-12 cells (AID 1347101); also: nearly all actives have a fitted effect of over 25% in size;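 as to activity change, negative = cytotoxic: plate controls were DMSO for no effect and bortezomib positive control for full effect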
Settings: BT-12 viability, CellTiter-Glo luminescence, 48 h; series mostly up to 57.3 µM; activity change, negative = cytotoxic: at the top concentration
Procedure, shortened: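 Cells (500-1,000/well) rested 5 h, then received compounds for 48 h; metabolically active cells were measured by CellTiter-Glo luminescence. Final concentrations spanned up to 46 µM (MIPE, 11-point) or 0.59 nM-46 µM (NPC, 8-point) in primary screens, 11-point in follow-ups.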
Potency is read from the fitted curve at half-maximal effect; tags tell the direction and shape of the fitted curve.

Row | Compound | Potency | activity change, negative = cytotoxic
1 | CCCn1c(=O)c2[nH]c(-c3cnn(Cc4cccc(C(F)(F)F)c4)c3)nc2n(CC)c1=O | inconclusive [cytotoxic, partial curve, poor fit] | 
2 | CCCC1OC2C[C@@H]3[C@H]4CCC5=CC(=O)C=C[C@]5(C)[C@H]4C(O)C[C@]3(C)[C@]2(C(=O)CO)O1 (some centres not stated) | inconclusive [cytotoxic, partial curve] | 
3 | CN(C)C1CCN(C(=O)c2ccc(NC(=O)Nc3nc(N4CCOCC4)nc(N4CCOCC4)n3)cc2)CC1 | inconclusive [cytotoxic, full curve] | 
4 | O=C1Nc2ccc(Cl)cc2C(C#CC2CC2)(C(F)(F)F)O1 (configuration not stated) | inconclusive [cytotoxic, single point] | 
5 | Cc1nc(Nc2n[nH]c3c2CN(C(=O)N[C@H](CN(C)C)c2ccccc2)C3(C)C)c2sccc2n1 | active: 2.43 µM | 
6 | CN(C[C@@H]1COCCO1)S(=O)(=O)Nc1ccc2ccc3ncc(-c4cnn(C)c4)cc3c(=O)c2c1 | inconclusive [cytotoxic, full curve] | 
7 | Cc1cn2c(-c3cn[nH]c3)cnc2c(Nc2ccc(C(=O)N3CCNCC3)cc2F)n1 | inconclusive [cytotoxic, partial curve] | 
8 | CN1N=C(N)c2cn([C@@H]3O[C@H](COP(=O)(O)O)[C@@H](O)[C@@H]3O)c3ncnc1c23 | inconclusive [cytotoxic, partial curve] | 
9 | N#CNC(=NCCCCCCOc1ccc(Cl)cc1)Nc1ccncc1 | active: 0.544 µM | 
10 | CC=CC(=O)N(CC)c1ccccc1C | inconclusive [cytotoxic, partial curve] | 
11 | COc1cc(Nc2nc3ccccc3nc2NS(=O)(=O)c2ccc(NC(=O)c3ccc(C)c(OC)c3)cc2)cc(OC)c1 | inconclusive [cytotoxic, partial curve] | 
12 | CC(C)n1nc(-c2ccc3oc(N)nc3c2)c2c(N)ncnc21 | active: 0.306 µM | 
13 | CN(C)CC[C@H](CSc1ccccc1)Nc1ccc(S(=O)(=O)NC(=O)c2ccc(N3CCN(Cc4ccccc4-c4ccc(Cl)cc4)CC3)cc2)cc1[N+](=O)[O-] | inconclusive [cytotoxic, partial curve] | 
14 | Cc1ccc([C@@H]2O[C@H](CO)[C@@H](O)[C@H](O)[C@@H]2O)cc1Cc1ccc(-c2ccc(F)cc2)s1 | inconclusive [cytotoxic, single point] | 
15 | CS(=O)(=O)N1CCN(Cc2cc3nc(-c4cccc5[nH]ncc45)nc(N4CCOCC4)c3s2)CC1 | inconclusive [cytotoxic, full curve] | 
16 | Cc1cccc2c1CC[C@H](CN1CCC(c3c(Cl)cccc3Cl)CC1)C[C@@H]2O | inconclusive [cytotoxic, partial curve] | 
17 | CCOC(=O)C1=C[C@]2(CC)CCCN3CCc4c(n1c1ccccc41)[C@@H]32 | inconclusive [cytotoxic, single point] | 
18 | COc1cc(C(C)C)c(Oc2cnc(NC(CO)CO)nc2N)cc1I | inconclusive [cytotoxic, partial curve] | 
19 | CN(CCOc1ccc(NS(C)(=O)=O)cc1)CCc1ccc(NS(C)(=O)=O)cc1 | inactive | 
20 | COc1cc([C@@H]2c3cc4c(cc3[C@H](O)[C@H]3COC(=O)[C@H]23)OCO4)cc(OC)c1OC | active: 55 nM and active: 1.9 nM | 
21 | CO[C@H]1/C=C\O[C@@]2(C)Oc3c(C)c(O)c4c(O)c(c5c(nc6cc(C)ccn65)c4c3C2=O)NC(=O)C(C)=CC=C[C@H](C)[C@H](O)[C@@H](C)[C@@H](O)[C@@H](C)[C@H](OC(C)=O)[C@H]1C | inconclusive [cytotoxic, partial curve] | 
22 | CCNC(=O)Nc1ccc2ncc(Nc3ccc(C)cc3)nc2n1 | inconclusive [cytotoxic, single point] | 
23 | C=C1C(=O)OC2C=C(C)CCC=C(C)CCC12 (configuration not stated) | inconclusive [cytotoxic, partial curve, poor fit] | 
24 | CCC(=O)NC[C@H](Cc1ccc(OCCc2nc(-c3ccccc3)oc2C)cc1)NC(C)=CC(=O)c1ccc(C(F)(F)F)cc1 | inconclusive [cytotoxic, partial curve] | 
25 | Nc1ncnc2c1nc(Cl)n2[C@@H]1O[C@H](CO)[C@@H](O)[C@@H]1O |  | inactive: -20%
26 | N=C(N=C(N)N)N1CCOCC1 | inactive | 
27 | O=C1NC(=O)C(=Cc2ccc3c(c2)OC(F)(F)O3)S1 | inconclusive [cytotoxic, partial curve] | 
